Consider 46 molecules from PubChem BioAssay AID493208 (National Center for Advancing Translational Sciences (NCATS), 2011).

Each structure is given as a SMILES string. Hit rate of the full screen: of about 44,000 compounds, about 340 (0.77%) were called active. Roughly 5% stayed inconclusive and do not appear here. Calls come from the whole dose curve; as a rule, active = well fitted inhibition curve with a large enough effect; inconclusive = small, poorly fitted or top-dose-only effect; inactive = flat fitted curve, though single readings scatter. Some of the results follow.
Potency is the fitted concentration of half-maximal effect.

The nature of this experiment: Acumen qHTS Assay for Inhibitors of the mTORC1 Signaling Pathway in MEF (Tsc2-/-, p53-/-) Cells: Sytravon.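 For activity change, negative = inhibition: plate controls were DMSO for no effect and rapamycin for full effect.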 Note: nearly all actives have a fitted effect of over 50% in size. As to conditions: phospho-rpS6 immunofluorescence/PI, 24 h; series mostly up to 38.3 µM; activity change, negative = inhibition: at the top concentration. The method in brief:
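Tsc2-/-, p53-/- MEFs (empty-vector stable line) in DMEM + 10% FBS were treated with compounds 24 h at 37 degree Celsius, fixed, and immunostained for phospho-rpS6 (Alexa-488) with propidium iodide counterstain. Laser-scanning cytometry gave % positive cells, normalized against 7.5 nM rapamycin and DMSO.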
On to `CCCCN(CC)CCNC(=O)c1nn(C)c2c1CS(=O)(=O)c1ccccc1-2`, for which the “activity change, negative = inhibition” value is inactive: 6.95%.
Consider `CCc1ccc(NC(=O)CCCc2nnc3n(C(C)CC)c(=O)c4sccc4n23)cc1` (stereo unspecified), for which the “activity change, negative = inhibition” value is inactive: -1.81%.
On to `Cc1ccc(NC(=O)CSc2nnc(NC(=O)NC3CCCCC3)s2)cc1`, for which the “activity change, negative = inhibition” value is inactive: -7.89%.
On the same count and under the same terms, the figure for `CCCS(=O)(=O)N1CC(=O)N(c2ccc(Cl)cc2C)C(C)(C(=O)NC2CCCC2)C1` (stereo unspecified) is inactive: 1.23%; for `COc1cc2nc(NC(=O)c3ccc(S(=O)(=O)N4CCOCC4)cc3)sc2cc1OC` it is inactive: -11.8%.
In the case of `COc1ccc(NC(=O)CSC2=Nc3ccccc3C3=NC(CCC(=O)NC4CCCCC4)C(=O)N23)cc1` (stereo unspecified), the “activity change, negative = inhibition” value is inactive: -6.13%.
For `CC(=O)c1cccc(NC(=O)C2CCN(S(=O)(=O)c3ccc4c(c3)oc(=O)n4C)CC2)c1`, the “activity change, negative = inhibition” value was inactive: 1.42%.
`CCOC(=O)c1cccc(NC(=O)CCn2c(-c3ccc(F)cc3)cc(C(=O)OCC)c2C)c1`: the “activity change, negative = inhibition” value was inactive: -3%.
`O=C(CSCc1ccccc1Cl)N1CCN(c2ccc(Cl)cc2)CC1`: the “activity change, negative = inhibition” value was inactive: 7.01%.
For `CCOC(=O)C1CCN(C(=O)c2ccc(-n3ccc4ccccc43)s2)CC1`, the “activity change, negative = inhibition” value is inactive: -5.97%.
Take `Cc1cccc(NC(=O)N2CC(=O)Nc3sc4c(c3C2c2ccccc2)CCCC4)c1C` (stereo unspecified): the “activity change, negative = inhibition” value was inactive: 3.04%.
On the same count and under the same terms, the figure for `Cc1ccc(C(=O)c2cn(CC(=O)Nc3ccc(C)cc3Cl)c3nc(C)ccc3c2=O)cc1` is inactive: 5.81%; for `CCOc1cc(CNC(=O)c2ccc3c(c2)NC(=O)C2CCCCN32)cc(OCC)c1OCC` (stereo unspecified) it is inactive: -0.484%; for `Cc1cn2c(=O)cc(COC(=O)c3ccc(NC(=O)COc4ccccc4F)cc3)nc2s1` it is inactive: 0%.
With `CCOc1ccccc1OCCCn1c(-c2ccc(Cl)cc2)nc2ccccc2c1=O`, the “activity change, negative = inhibition” value is inactive: -0.977%.
On to `Cc1cc(C)cc(-n2c(-c3ccccc3)c(C)n3c4c(=O)n(C)c(=O)n(C)c4nc23)c1`, for which the “activity change, negative = inhibition” value is inactive: 2.06%.
In the case of `COc1cc(C(=O)NCC(c2cccs2)S(=O)(=O)c2cccs2)cc(OC)c1OC` (stereo unspecified), the “activity change, negative = inhibition” value was inactive: -8.39%.
`CCc1ccccc1NC(=O)c1cnc(N2CCCCC2)c2ccccc12`: the “activity change, negative = inhibition” value is inactive: 5.15%.
On the same count and under the same terms, the figure for `CCOc1ccc(CCNC(=O)Cn2nc(CC)n3c(cc4ccccc43)c2=O)cc1` is inactive: -5.6%; for `COc1ccc(-c2c3c(=O)n(C)c(=O)n(C)c3c3n2-c2ccccc2NC3c2ccco2)cc1` (stereo unspecified) it is inactive: -1.83%; for `CCOC(=O)c1[nH]c(C)c(CCC(=O)Nc2cc(C)ccc2OC)c1C` it is inactive: 2.07%.
On to `Cc1ccccc1CN1CCC(CNC(=O)c2c(C)oc3ncnc(N4CCCCC4)c23)CC1`, for which the “activity change, negative = inhibition” value was inactive: -4.98%.
`CCN1C(=O)c2ccccc2S(=O)c2ccc(C(=O)N3CCN(c4cc(Cl)ccc4C)CC3)cc21` (stereo unspecified): the “activity change, negative = inhibition” value was inactive: -13.2%.
Consider `CCC(Sc1nc(-c2ccccc2F)nc2c1Cc1c(CO)cnc(C)c1O2)C(=O)Nc1cc(C)ccc1C` (stereo unspecified), for which the “activity change, negative = inhibition” value is inactive: -3.93%.
The same measure, in the same setting: as for `CCOc1ccc(CCNC(=O)C2=C(C)C(=O)OC23CCCCC3)cc1`, the figure is inactive: 6.44%; as for `Fc1ccc(-c2noc3ncnc(NCc4ccc(Cl)cc4)c23)cc1`, inactive: -7.42%.
Consider `O=C(CCn1c(=O)c2cccn2c2cccnc21)NCc1ccc(F)cc1`, for which the “activity change, negative = inhibition” value is inactive: 2.91%.
In the case of `CN(Cc1ccccc1)C(=O)c1ccc2c(c1)N(Cc1ccccc1Cl)C(=O)c1ccccc1S2`, the “activity change, negative = inhibition” value was inactive: -2.88%.
As to `COc1cc(C2CC(=O)Oc3c2c(=O)n(C)c2ccccc32)ccc1O` (stereo unspecified), the “activity change, negative = inhibition” value was inactive: -18.1%.
For `CCOC(=O)C1CCN(S(=O)(=O)c2ccc3c(c2)N(C)C(=O)CC(=O)N3C)CC1`, the “activity change, negative = inhibition” value is inactive: 0.0448%.
On to `COc1ccc(C(=O)NC2(C(F)(F)F)C(=O)Nc3c2c(=O)[nH]c(=O)n3CCc2ccc(OC)c(OC)c2)cc1` (stereo unspecified), for which the “activity change, negative = inhibition” value is inactive: 11%.
Consider `O=C(COc1ccccc1)Nc1ccc2nc(SCCOc3ccccc3)sc2c1`, for which the “activity change, negative = inhibition” value is inactive: -0.534%.
The same measure, in the same setting: as for `CCOC(=O)c1c(C)[nH]c(C)c1S(=O)(=O)N(C)CC(=O)Nc1ccc(C)cc1C`, the figure is inactive: 8%.
On to `Cc1cc(C)c2oc(-c3cccc(NC(=O)COc4ccc([N+](=O)[O-])cc4)c3)nc2c1`, for which the Potency is active: 20.7 µM.
With `Cc1ccc(NC(=O)Cn2c(=O)n(CC3CCCO3)c(=O)c3ccccc32)cc1` (stereo unspecified), the “activity change, negative = inhibition” value was inactive: -1.23%.
In the case of `Cc1ccc(Cl)cc1N1CCN(C(=O)c2ccc(CS(=O)(=O)c3ccccc3C)o2)CC1`, the “activity change, negative = inhibition” value was inactive: -11.9%.
On the same count and under the same terms, as for `Cc1cccc(-c2nnc(C3CCN(S(=O)(=O)c4cccc(Cl)c4)CC3)o2)c1`, the figure is inactive: -21.2%; as for `CCOc1cc2[nH]c(=O)n(Cc3ccc(C(=O)N4CCN(c5cccc(Cl)c5)CC4)cc3)c(=O)c2cc1OCC`, inactive: -0.278%; as for `COc1cc(C2NC(=O)c3c(sc4c3CCN(C)C4)N2)cc(OC)c1OC` (stereo unspecified), inactive: -0.72%.
Take `CC(=O)CSc1nnc2[nH]c(=O)cc(N)n12`: the “activity change, negative = inhibition” value is inactive: -7.22%.
`O=C(Cn1c(=O)nc(-c2ccccc2)c2cc(Cl)ccc21)N1CCN(c2ccc(F)cc2)CC1`: the “activity change, negative = inhibition” value is inactive: 14.4%.
For `COc1ccc(Br)cc1CN1C(=O)c2ccccc2C1C(=O)NC1CCCCCC1` (stereo unspecified), the “activity change, negative = inhibition” value is inactive: 9.49%.
As to `CCOC(=O)c1c(C)c(-c2ccccc2)n(CC(=O)NC2CCCCC2)c1C`, the “activity change, negative = inhibition” value is inactive: -7.4%.
As to `CCOC(=O)c1c(C)[nH]c(C)c1S(=O)(=O)N1CCCC(C(=O)N2CCN(c3cccc(C)c3C)CC2)C1` (stereo unspecified), the “activity change, negative = inhibition” value is inactive: -5.34%.
As to `COc1ccc(Cl)cc1NC(=O)c1nn(-c2ccc(C)cc2)c(=O)n(C)c1=O`, the “activity change, negative = inhibition” value was inactive: 4.03%.
With `COc1cc(NC(=O)Cn2cnc(S(=O)(=O)N3CCCC3)c2)cc(OC)c1OC`, the “activity change, negative = inhibition” value is inactive: -1.25%.
